# Results published in the supplement of paper PMC7826260.
# The list shows a part of the results. Each Rep nickase domain was tested in vitro on the same pool of single strands for 1 h at 37 °C with 3 µM enzyme; only the middle of the 90-letter strands is printed. Values are log2 of uncut reads against the no-enzyme pool; strong cutting gives strongly negative numbers. There is no active / inactive call. The scaling is to total reads; where an enzyme cuts many sequences, the uncut ones exceed 0.
# Tests used:
# Test in all cases: uncleaved DNA left, log2 of reads against the no-enzyme library (log2 ratio); higher = less cleavage (more negative = more Rep cleavage of the k-mer); sequences stand for … in CTCGTCCG…ACCGGAGA
# [1] = system: T1, Rep nickase domain of Muscovy duck circovirus
# T1 sequence (residues 1-111 of Rep, tag left off): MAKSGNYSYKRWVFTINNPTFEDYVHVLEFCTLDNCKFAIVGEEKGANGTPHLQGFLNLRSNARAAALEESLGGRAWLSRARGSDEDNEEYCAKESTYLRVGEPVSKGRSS
# Procedure: (§1)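 A pool of 90-nt single-stranded DNAs with seven random bases just before the constant AC of the nick site (name = the seven bases) was cut by 3 µM recombinant His6-SUMO-tagged Rep nickase domain (300 nM DNA, 50 mM HEPES pH 8.0, 50 mM NaCl, 1 mM MnCl2, 1 h, 37 °C, three replicates). Uncut DNA was amplified and sequenced.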
# [2] = system: T2, Rep nickase domain of banana bunchy top virus
# T2 sequence (residues 1-94 of Rep, tag left off): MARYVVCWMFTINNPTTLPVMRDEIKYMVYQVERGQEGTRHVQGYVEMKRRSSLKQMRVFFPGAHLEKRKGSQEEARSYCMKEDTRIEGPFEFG
# Procedure: as §1
# [3] = system: T3, Rep nickase domain of cabbage leaf curl virus
# T3 sequence (residues 1-116 of Rep, tag left off): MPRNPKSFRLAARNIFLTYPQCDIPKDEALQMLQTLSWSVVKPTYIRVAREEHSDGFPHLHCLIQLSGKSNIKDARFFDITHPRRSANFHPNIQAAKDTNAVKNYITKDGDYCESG
# Procedure: as §1
# [4] = system: T4, Rep nickase domain of chickpea chlorotic dwarf virus
# T4 sequence (residues 1-124 of Rep, tag left off): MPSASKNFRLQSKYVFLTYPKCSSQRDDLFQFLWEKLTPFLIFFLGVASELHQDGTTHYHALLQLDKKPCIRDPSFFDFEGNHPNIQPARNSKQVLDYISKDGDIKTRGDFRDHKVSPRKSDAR
# Procedure: as §1
# [5] = system: T5, Rep nickase domain of faba bean necrotic yellows virus
# T5 sequence (residues 1-98 of Rep, tag left off): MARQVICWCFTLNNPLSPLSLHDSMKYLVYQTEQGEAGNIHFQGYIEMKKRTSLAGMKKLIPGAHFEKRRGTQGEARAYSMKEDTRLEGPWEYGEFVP
# Procedure: as §1
# [6] = system: T6, Rep nickase domain of maize striate mosaic virus
# T6 sequence (residues 1-117 of Rep, tag left off): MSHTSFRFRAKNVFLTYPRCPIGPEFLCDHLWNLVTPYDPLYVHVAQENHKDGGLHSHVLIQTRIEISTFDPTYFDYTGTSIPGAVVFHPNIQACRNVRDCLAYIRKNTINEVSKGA
# Procedure: as §1
# [7] = system: T7, Rep nickase domain of porcine circovirus 2
# T7 sequence (residues 2-116 of Rep, tag left off): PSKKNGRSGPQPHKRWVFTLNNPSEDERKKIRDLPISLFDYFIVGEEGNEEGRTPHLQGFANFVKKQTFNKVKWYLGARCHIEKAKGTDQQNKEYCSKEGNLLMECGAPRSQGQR
# Procedure: as §1
# [8] = system: T8, Rep nickase domain of tomato golden mosaic virus
# T8 sequence (residues 1-124 of Rep, tag left off): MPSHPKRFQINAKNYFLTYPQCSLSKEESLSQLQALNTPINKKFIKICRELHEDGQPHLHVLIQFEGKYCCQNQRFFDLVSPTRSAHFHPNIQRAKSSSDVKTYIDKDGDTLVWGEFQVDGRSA
# Procedure: as §1
# [9] = system: T9, Rep nickase domain of tomato yellow leaf curl virus
# T9 sequence (residues 1-136 of Rep, tag left off): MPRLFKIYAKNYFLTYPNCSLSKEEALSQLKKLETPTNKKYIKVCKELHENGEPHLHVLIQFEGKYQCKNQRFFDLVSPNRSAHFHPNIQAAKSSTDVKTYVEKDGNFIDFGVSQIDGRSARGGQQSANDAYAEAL
# Procedure: as §1
# [10] = system: T10, Rep nickase domain of wheat dwarf virus
# T10 sequence (residues 1-137 of Rep, tag left off): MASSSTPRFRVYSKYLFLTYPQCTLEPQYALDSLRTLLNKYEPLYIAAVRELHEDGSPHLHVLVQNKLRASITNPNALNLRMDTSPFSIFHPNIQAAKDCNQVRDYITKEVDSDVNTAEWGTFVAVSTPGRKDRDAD
# Procedure: as §1
Sequence,uncleaved DNA left (log2) [1],uncleaved DNA left (log2) [2],uncleaved DNA left (log2) [3],uncleaved DNA left (log2) [4],uncleaved DNA left (log2) [5],uncleaved DNA left (log2) [6],uncleaved DNA left (log2) [7],uncleaved DNA left (log2) [8],uncleaved DNA left (log2) [9],uncleaved DNA left (log2) [10]
AAAACCC,-0.0613,0.0108,-0.0646,-1.03,0.0439,-0.376,-0.598,-0.0342,-0.112,0.0138
CCGTGGC,0.0643,-0.181,-0.0645,-0.28,-0.075,-0.451,0.134,-0.0597,0.059,-0.0643
CCCCCAG,-0.0805,-0.0946,-0.532,-0.509,0.0746,-0.882,-0.0277,0.0211,-0.0267,-0.204
CGTTGTA,-0.107,-0.0913,-0.148,-0.424,0.0348,-0.769,-0.158,0.0428,0.152,-0.0258
GCGCAGG,-0.318,-0.212,-0.201,0.38,0.00228,0.404,-0.163,-0.0894,-0.183,-0.165
GCTGGGG,0.119,0.00973,0.426,0.696,-0.0459,0.732,0.221,0.0642,-0.0147,0.0661
GATAGGT,0.0602,0.0781,0.397,0.995,-0.0325,1.4,0.0255,0.0391,-0.00109,-0.0099
TGGCACA,0.0909,0.0671,0.57,0.877,-0.168,1.4,0.0674,-0.0805,-0.0357,0.0945
TTCTATT,-3.78,-2.68,-2.31,-2.83,-0.251,-0.87,-3.49,-0.384,-0.144,-0.669
GCTAAAA,0.0421,0.17,0.179,0.609,0.0113,0.203,0.19,0.175,0.00857,0.117
TTGAGGC,0.0561,-0.072,0.059,0.0989,-0.0482,-0.475,0.0408,-0.0892,-0.048,-0.0331
GGTGAGC,0.153,0.154,0.558,1.3,-0.00344,1.58,0.202,0.0223,0.116,0.14
CTTACCC,-0.258,0.0473,-0.224,-2.52,0.0251,-0.554,-1.17,-0.0796,-0.105,0.0547
TTTTCAC,0.0396,0.00259,0.111,-0.112,-0.0407,-0.199,0.128,-0.000841,0.0171,0.0662
TGTCACG,0.0113,-0.0463,-0.789,-0.559,0.134,-1.13,0.191,-0.0665,0.011,0.000405
